# Assay results published in the supplement of paper PMC8728848.
# The list shows a part of the results.
# B1: HHL-1 (Homo sapiens), P07306 (protein)
# chain: TKEYQDLQHLDNEESDHHQLRKGPPPPQPLLQRLCSGPRLLLLSLGLSLLLLVVVCVIGSQNSQLQEELRGLRETFSNFTASTEAQVKGLSTQGGNVGRKMKSLESQLEKQQKDLSEDHSSLLLHVKQFVSDLRSLSCQMAALQGNGSERTCCPVNWVEHERSCYWFSRSGKAWADADNYCRLEDAHLVVVTSWEEQKFVQHHIGPVNTWMGLHDQNGPWKWVDGTDYETGFKNWRPEQPDDWYGHGLGGGEDCAHFTDDGRWNDDVCQRPYRWVCETELDKASQEPPLL
# How the values were obtained:
# Assay in all cases: glycan array binding signal (z-score within array); higher = stronger binding
# Details in all cases: glycan notation: IUPAC condensed, linker removed
# [1] = molecular target: Neu5Ac(a2-3)Gal(b1-4)[Fuc(a1-3)]GlcNAc
# Summary of the method: (§1)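 Glycan array binding is given as a within-array Z-score, which can be read as non-binding when negative. The arrays, 3228 of them, came from the Consortium for Functional Glycomics database and were retained only where the protein sequence was available. Z-scores were averaged across arrays of the same protein sequence at different concentrations or buffers and across linkers.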
# [2] = molecular target: Neu5Ac(a2-3)Gal(b1-4)[Fuc(a1-3)]GlcNAc(b1-3)Gal
# Summary of the method: as §1
# [3] = molecular target: Neu5Ac(a2-3)Gal(b1-4)[Fuc(a1-3)]GlcNAc(b1-3)Gal(b1-4)GlcNAc
# Summary of the method: as §1
# [4] = molecular target: Neu5Ac(a2-3)Gal(b1-4)[Fuc(a1-3)]GlcNAc(b1-3)Gal(b1-4)[Fuc(a1-3)]GlcNAc(b1-3)Gal(b1-4)[Fuc(a1-3)]GlcNAc
# Summary of the method: as §1
# [5] = molecular target: Neu5Ac(a2-3)Gal(b1-4)[Fuc(a1-3)]GlcNAc(b1-6)[Gal(b1-3)]GalNAc
# Summary of the method: as §1
# [6] = molecular target: Neu5Ac(a2-3)Gal(b1-4)[Fuc(a1-3)]GlcNAc(b1-6)[Neu5Ac(a2-3)Gal(b1-3)]GalNAc
# Summary of the method: as §1
# [7] = molecular target: Neu5Ac(a2-3)Gal(b1-4)[Fuc(a1-3)]GlcNAc6S
# Summary of the method: as §1
# [8] = molecular target: Neu5Ac(a2-3)Gal6S(b1-4)GlcNAc
# Summary of the method: as §1
# [9] = molecular target: Neu5Ac(a2-3)Gal6S(b1-4)[Fuc(a1-3)]GlcNAc
# Summary of the method: as §1
# [10] = molecular target: Neu5Ac(a2-3)GalNAc
# Summary of the method: as §1
# [11] = molecular target: Neu5Ac(a2-3)GalNAc(b1-4)GlcNAc
# Summary of the method: as §1
# [12] = molecular target: Neu5Ac(a2-3)[GalNAc(b1-4)]Gal(b1-4)Glc
# Summary of the method: as §1
# [13] = molecular target: Neu5Ac(a2-3)[GalNAc(b1-4)]Gal(b1-4)GlcNAc
# Summary of the method: as §1
# [14] = molecular target: Neu5Ac(a2-3)[Neu5Ac(a2-6)]GalNAc
# Summary of the method: as §1
# [15] = molecular target: Neu5Ac(a2-6)Gal
# Summary of the method: as §1
# [16] = molecular target: Neu5Ac(a2-6)Gal(b1-4)Glc
# Summary of the method: as §1
# [17] = molecular target: Neu5Ac(a2-6)Gal(b1-4)GlcNAc
# Summary of the method: as §1
# [18] = molecular target: Neu5Ac(a2-6)Gal(b1-4)GlcNAc(b1-2)Man(a1-3)Man(b1-4)GlcNAc(b1-4)GlcNAc
# Summary of the method: as §1
# [19] = molecular target: Neu5Ac(a2-6)Gal(b1-4)GlcNAc(b1-2)Man(a1-3)[Gal(b1-4)GlcNAc(b1-2)Man(a1-6)]Man(b1-4)GlcNAc(b1-4)GlcNAc
# Summary of the method: as §1
# [20] = molecular target: Neu5Ac(a2-6)Gal(b1-4)GlcNAc(b1-2)Man(a1-3)[GlcNAc(b1-2)Man(a1-6)]Man(b1-4)GlcNAc(b1-4)GlcNAc
# Summary of the method: as §1
# [21] = molecular target: Neu5Ac(a2-6)Gal(b1-4)GlcNAc(b1-2)Man(a1-3)[GlcNAc(b1-2)Man(b1-4)GlcNAc(b1-2)Man(a1-6)]Man(b1-4)GlcNAc(b1-4)GlcNAc
# Summary of the method: as §1
# [22] = molecular target: Neu5Ac(a2-6)Gal(b1-4)GlcNAc(b1-2)Man(a1-3)[Man(a1-6)]Man(b1-4)GlcNAc(b1-4)GlcNAc
# Summary of the method: as §1
# [23] = molecular target: Neu5Ac(a2-6)Gal(b1-4)GlcNAc(b1-2)Man(a1-3)[Neu5Ac(a2-6)Gal(b1-4)GlcNAc(b1-2)Man(a1-6)]Man(b1-4)GlcNAc(b1-4)GlcNAc
# Summary of the method: as §1
# [24] = molecular target: Neu5Ac(a2-6)Gal(b1-4)GlcNAc(b1-2)Man(a1-6)Man(b1-4)GlcNAc(b1-4)GlcNAc
# Summary of the method: as §1
# [25] = molecular target: Neu5Ac(a2-6)Gal(b1-4)GlcNAc(b1-2)Man(a1-6)[Gal(b1-4)GlcNAc(b1-2)Man(a1-3)]Man(b1-4)GlcNAc(b1-4)GlcNAc
# Summary of the method: as §1
# [26] = molecular target: Neu5Ac(a2-6)Gal(b1-4)GlcNAc(b1-2)Man(a1-6)[GlcNAc(b1-2)Man(a1-3)]Man(b1-4)GlcNAc(b1-4)GlcNAc
# Summary of the method: as §1
# [27] = molecular target: Neu5Ac(a2-6)Gal(b1-4)GlcNAc(b1-2)Man(a1-6)[Man(a1-3)]Man(b1-4)GlcNAc(b1-4)GlcNAc
# Summary of the method: as §1
# [28] = molecular target: Neu5Ac(a2-6)Gal(b1-4)GlcNAc(b1-3)Gal(b1-3)GlcNAc
# Summary of the method: as §1
# [29] = molecular target: Neu5Ac(a2-6)Gal(b1-4)GlcNAc(b1-3)Gal(b1-4)GlcNAc
# Summary of the method: as §1
# [30] = molecular target: Neu5Ac(a2-6)Gal(b1-4)GlcNAc(b1-3)Gal(b1-4)GlcNAc(b1-3)Gal(b1-4)GlcNAc
# Summary of the method: as §1
# [31] = molecular target: Neu5Ac(a2-6)Gal(b1-4)GlcNAc(b1-3)Gal(b1-4)[Fuc(a1-3)]GlcNAc(b1-3)Gal(b1-4)[Fuc(a1-3)]GlcNAc
# Summary of the method: as §1
# [32] = molecular target: Neu5Ac(a2-6)Gal(b1-4)GlcNAc(b1-3)GalNAc
# Summary of the method: as §1
# [33] = molecular target: Neu5Ac(a2-6)Gal(b1-4)GlcNAc6S
# Summary of the method: as §1
# [34] = molecular target: Neu5Ac(a2-6)GalNAc
# Summary of the method: as §1
# [35] = molecular target: Neu5Ac(a2-6)GalNAc(b1-4)GlcNAc
# Summary of the method: as §1
# [36] = molecular target: Neu5Ac(a2-6)GlcNAc(b1-4)GlcNAc
# Summary of the method: as §1
# [37] = molecular target: Neu5Ac(a2-6)GlcNAc(b1-4)GlcNAc(b1-4)GlcNAc
# Summary of the method: as §1
# [38] = molecular target: Neu5Ac(a2-8)Neu5Ac
# Summary of the method: as §1
# [39] = molecular target: Neu5Ac(a2-8)Neu5Ac(a2-3)Gal(b1-4)Glc
# Summary of the method: as §1
# [40] = molecular target: Neu5Ac(a2-8)Neu5Ac(a2-3)[GalNAc(b1-4)]Gal(b1-4)Glc
# Summary of the method: as §1
# [41] = molecular target: Neu5Ac(a2-8)Neu5Ac(a2-8)Neu5Ac
# Summary of the method: as §1
# [42] = molecular target: Neu5Ac(a2-8)Neu5Ac(a2-8)Neu5Ac(a2-3)Gal(b1-4)Glc
# Summary of the method: as §1
# [43] = molecular target: Neu5Ac(a2-8)Neu5Ac(a2-8)Neu5Ac(a2-3)[GalNAc(b1-4)]Gal(b1-4)Glc
# Summary of the method: as §1
# [44] = molecular target: Neu5Ac(a2-8)Neu5Ac(a2-8)Neu5Ac(a2-8)Neu5Ac(a2-3)[GalNAc(b1-4)]Gal(b1-4)Glc
# Summary of the method: as §1
# [45] = molecular target: Neu5Ac(b2-6)Gal(b1-4)GlcNAc
# Summary of the method: as §1
# [46] = molecular target: Neu5Ac(b2-6)GalNAc
# Summary of the method: as §1
# [47] = molecular target: Neu5Ac9Ac(a2-3)Gal(b1-3)GlcNAc
# Summary of the method: as §1
# [48] = molecular target: Neu5Ac9Ac(a2-3)Gal(b1-4)GlcNAc
# Summary of the method: as §1
# [49] = molecular target: Neu5Ac9Ac(a2-6)Gal(b1-4)GlcNAc
# Summary of the method: as §1
# [50] = molecular target: Neu5Gc(a2-3)Gal(b1-3)GlcNAc
# Summary of the method: as §1
# [51] = molecular target: Neu5Gc(a2-3)Gal(b1-3)[Fuc(a1-4)]GlcNAc
# Summary of the method: as §1
# [52] = molecular target: Neu5Gc(a2-3)Gal(b1-4)Glc
# Summary of the method: as §1
# [53] = molecular target: Neu5Gc(a2-3)Gal(b1-4)GlcNAc
# Summary of the method: as §1
# [54] = molecular target: Neu5Gc(a2-3)Gal(b1-4)[Fuc(a1-3)]GlcNAc
# Summary of the method: as §1
# [55] = molecular target: Neu5Gc(a2-6)Gal(b1-4)GlcNAc
# Summary of the method: as §1
# [56] = molecular target: Neu5Gc(a2-6)GalNAc
# Summary of the method: as §1
# [57] = molecular target: Neu5Gc(b2-6)Gal(b1-4)GlcNAc
# Summary of the method: as §1
binder,measurement,setting,value
B1,glycan array binding signal (z-score),[1],-0.528
same,glycan array binding signal (z-score),[2],-0.143
same,glycan array binding signal (z-score),[3],-0.468
same,glycan array binding signal (z-score),[4],-0.469
same,glycan array binding signal (z-score),[5],-0.329
same,glycan array binding signal (z-score),[6],-0.569
same,glycan array binding signal (z-score),[7],-0.489
same,glycan array binding signal (z-score),[8],-0.558
same,glycan array binding signal (z-score),[9],-0.533
same,glycan array binding signal (z-score),[10],-0.482
same,glycan array binding signal (z-score),[11],0.978
same,glycan array binding signal (z-score),[12],0.352
same,glycan array binding signal (z-score),[13],-0.188
same,glycan array binding signal (z-score),[14],0.133
same,glycan array binding signal (z-score),[15],0.61
same,glycan array binding signal (z-score),[16],-0.274
same,glycan array binding signal (z-score),[17],-0.307
same,glycan array binding signal (z-score),[18],-0.335
same,glycan array binding signal (z-score),[19],1.69
same,glycan array binding signal (z-score),[20],-0.086
same,glycan array binding signal (z-score),[21],-0.344
same,glycan array binding signal (z-score),[22],0.807
same,glycan array binding signal (z-score),[23],-0.114
same,glycan array binding signal (z-score),[24],-0.341
same,glycan array binding signal (z-score),[25],-0.419
same,glycan array binding signal (z-score),[26],0.241
same,glycan array binding signal (z-score),[27],-0.283
same,glycan array binding signal (z-score),[28],0.296
same,glycan array binding signal (z-score),[29],-0.544
same,glycan array binding signal (z-score),[30],0.954
same,glycan array binding signal (z-score),[31],0.266
same,glycan array binding signal (z-score),[32],0.333
same,glycan array binding signal (z-score),[33],-0.346
same,glycan array binding signal (z-score),[34],-0.568
same,glycan array binding signal (z-score),[35],-0.517
same,glycan array binding signal (z-score),[36],0.387
same,glycan array binding signal (z-score),[37],-0.495
same,glycan array binding signal (z-score),[38],-0.455
same,glycan array binding signal (z-score),[39],-0.431
same,glycan array binding signal (z-score),[40],-0.16
same,glycan array binding signal (z-score),[41],-0.202
same,glycan array binding signal (z-score),[42],-0.038
same,glycan array binding signal (z-score),[43],-0.164
same,glycan array binding signal (z-score),[44],2.28
same,glycan array binding signal (z-score),[45],-0.409
same,glycan array binding signal (z-score),[46],-0.515
same,glycan array binding signal (z-score),[47],-0.561
same,glycan array binding signal (z-score),[48],0.603
same,glycan array binding signal (z-score),[49],-0.319
same,glycan array binding signal (z-score),[50],-0.431
same,glycan array binding signal (z-score),[51],0.046
same,glycan array binding signal (z-score),[52],0.177
same,glycan array binding signal (z-score),[53],-0.534
same,glycan array binding signal (z-score),[54],0.159
same,glycan array binding signal (z-score),[55],0.777
same,glycan array binding signal (z-score),[56],-0.536
same,glycan array binding signal (z-score),[57],-0.537
